Usually % Inhibition stands for the change of the read-out against control, counted positive when it falls.

In all, about 150,000 compounds went through this assay and about 540 (0.36%) showed an effect of 50% or more. Some of the results follow. Where a SMILES comes first, the peptide text is derived from it. The star is where a group is joined. PhAc = O=C(Cc1ccccc1)*; NHPr = CCCN*

Results on 44 compounds are retold here after ChEMBL document CHEMBL4888484, “Replenishing the malaria drug discovery pipeline: Screening and hit evaluation of the MMV Hit Generation Library 1 (HGL1) against asexual blood stage Plasmodium falciparum ,using a nano luciferase reporter read-out” (2022).

The test concerns Plasmodium falciparum. Description: Primary screen in NF54 nanoGlo assay, in single point, at 2uM, 72h; a lower Z score goes with more inhibition. Format: functional, Erythrocyte. As to conditions: timepoint 72 hour.
In the case of `CCCN1C(=O)c2cc(S(=O)(=O)N3CCCC[C@@H]3CC)ccc2Oc2cccnc21`, the “% Inhibition” value is -6% and the Z score was determined as 1.08.

As to `COCC(=O)N(Cc1c(-c2ccccc2)nn(C)c1Oc1ccccc1)C1CC1`, the “% Inhibition” value is on record as -5% and the Z score amounted to 0.92.

In the case of `Cn1cc(Cc2nc(C3CN4CCCCC4CO3)no2)cn1` (stereo not drawn), the “% Inhibition” value is reported as -21% and the Z score is reported as 1.92.

For `COc1cccc(O[C@@H](C)C(=O)N2CC(Oc3ccccc3C)C2)c1`, the “% Inhibition” value is reported as -9% and the Z score amounted to 1.07.

`COC(=O)C[C@H](NC(=O)c1cccc2cc[nH]c12)C1CC1`: the “% Inhibition” value is reported as 0% and the Z score came out at 0.02.

Take `Cc1nc2ccc(C(=O)NCC3(c4ccccc4)CCN(C)CC3)cc2o1`: the “% Inhibition” value is -13% and the Z score is given as 1.29.

`N#Cc1ccc(C(=O)N(Cc2ccccc2)CC2(O)CCCC2)nc1`: the “% Inhibition” value is -3% and the Z score was determined as 0.44.

Regarding `COCCN1CCN(c2nc3c(c(=O)[nH]2)Cc2ccccc2OC3)CC1`, the “% Inhibition” value was -14% and the Z score is reported as 1.34.

On to `Cc1nnc2nc(-c3cccc(Cl)c3Cl)[nH]n12`, for which the “% Inhibition” value is -3% and the Z score is listed as 0.33.

As for `CCCNC(=O)CNC(=O)CNC(=O)Cc1ccccc1` (PhAc-Gly-Gly-NHPr), the “% Inhibition” value is on record as -5% and the Z score stood at 0.78.

Take `O=C(NCc1cccnc1)N[C@H]1COc2cc(F)cc(F)c21`: the “% Inhibition” value is recorded as -9% and the Z score was determined as 1.65.

`Cc1cc(C(=O)N2CCN3C(=O)OC[C@H]3C2)c(C)o1`: the “% Inhibition” value is -4% and the Z score is on record as 0.64.

Turning to `COCCC1(NC(=O)c2ccccc2)CCN(Cc2ccccn2)CC1`, the “% Inhibition” value is given as -12% and the Z score is listed as 1.55.

With `COc1ccc(CCC(=O)N(Cc2cccc(O)c2)CC2CC2)cc1Cl`, the “% Inhibition” value was -2% and the Z score is 0.21.

Regarding `CN(C[C@H]1CCOC1)c1nc2ccc(Cl)cc2s1`, the “% Inhibition” value was -8% and the Z score is 1.64.

For `Cc1cccc(N[C@@H](C)C(=O)Nc2nnc(C)s2)c1`, the “% Inhibition” value is -24% and the Z score is on record as 2.77.

For the compound `Cc1ccc2oc(C(=O)N3CCN(CC(C)(C)O)CC3)cc2n1`, the “% Inhibition” value is -8% and the Z score came out at 1.15.

In the case of `O=C(CCc1cc2n(n1)CCN(C(=O)c1ccc[nH]1)C2)N1CCOCC1`, the “% Inhibition” value is recorded as -14% and the Z score worked out at 2.61.

Take `CNc1nc(CN(Cc2nccs2)C2CC2)cs1`: the “% Inhibition” value is recorded as -4% and the Z score amounted to 0.79.

As for `CCN(CC)S(=O)(=O)c1ccc(NCc2ncccn2)cc1`, the “% Inhibition” value is -11% and the Z score turned out to be 0.99.

As to `Cc1cccc(N(CC(C)(C)C)C(=O)c2c3c(nn2C)CCC3)n1`, the “% Inhibition” value was 5% and the Z score is listed as -0.83.

As for `CCOC(=O)N1CCN(C(=O)C[C@H]2C(=O)NCCN2Cc2ccc(F)cc2Cl)CC1`, the “% Inhibition” value is listed as 12% and the Z score is recorded as -1.37.

On to `C=CCC(C)(CC=C)NS(=O)(=O)c1ccc(NC(C)=O)cc1`, for which the “% Inhibition” value is recorded as -3% and the Z score was 0.48.

In the case of `O=C(CN1CCCC[C@@H]1Cn1cncn1)N1CCc2ccccc2C1`, the “% Inhibition” value is reported as -14% and the Z score was determined as 1.45.

Take `Cc1cc(F)ccc1NC(=O)c1cnc(-c2ccccc2)nc1C`: the “% Inhibition” value is recorded as -7% and the Z score is on record as 1.06.

In the case of `O=C(Cc1c(F)cccc1Cl)N1CCC(=C2CC2)CC1`, the “% Inhibition” value is given as -14% and the Z score is on record as 1.59.

Take `Cc1ccc(OCc2cc(C)no2)nc1`: the “% Inhibition” value is -2% and the Z score is listed as 0.36.

`Cc1ccc(CN2CCN(Cc3c[nH]c4ccccc34)C[C@@H]2CCO)o1`: the “% Inhibition” value was -20% and the Z score amounted to 1.76.

Turning to `COC[C@H](C)n1c(CCCC(=O)N2CCOC(C)(C)C2)nc2cccnc21`, the “% Inhibition” value was -5% and the Z score is listed as 0.62.

Turning to `O=C(N[C@@H](C(F)F)C1CCCCC1)c1cc2n(n1)CCO2`, the “% Inhibition” value was -2% and the Z score turned out to be 0.28.

On to `CCn1c(CN2CCC(C(=O)OC)CC2)nc2cc(S(=O)(=O)N3CCCCC3)ccc21`, for which the “% Inhibition” value was -3% and the Z score worked out at 0.72.

With `Fc1ccc(-c2nc(-c3ccc(-n4ccnc4)nc3)no2)cc1`, the “% Inhibition” value is listed as -17% and the Z score was 1.77.

As for `COc1ccc(CCC(=O)N2CCCN(C(=O)c3sc4cccc(F)c4c3C)CC2)cc1`, the “% Inhibition” value is reported as 4% and the Z score is given as -0.71.

With `CCc1ccc2nccc(N3CCC(n4ccnn4)CC3)c2c1`, the “% Inhibition” value is reported as -6% and the Z score is on record as 0.98.

As to `COc1cc(NCc2cc(F)cc3c(C)c(C)[nH]c23)ncn1`, the “% Inhibition” value is -3% and the Z score is listed as 0.34.

As to `C[C@@H]1CN(Cc2nnnn2C)C[C@H](C)O1`, the “% Inhibition” value is recorded as -1% and the Z score is 0.2.

Turning to `CCn1c(CC2CCN(C(=O)c3c[nH]c(C)n3)CC2)nn(C)c1=O`, the “% Inhibition” value came to 1% and the Z score is on record as -0.17.

For `Cc1noc(OCC2CCS(=O)(=O)CC2)n1`, the “% Inhibition” value is -4% and the Z score was determined as 0.62.

With `CC(C)n1nccc1C(=O)N[C@@H](C)c1nc2cc(Cl)ccc2[nH]1`, the “% Inhibition” value is on record as -5% and the Z score came out at 0.45.

Turning to `Cc1cccc(OCc2nc(CN(C)C(=O)Cc3ccccc3)cs2)c1C`, the “% Inhibition” value is on record as -21% and the Z score worked out at 2.5.

`O=S(=O)(CCn1cc(CCc2ccccc2)nn1)N1CCCC1`: the “% Inhibition” value is recorded as -13% and the Z score amounted to 2.38.

Regarding `O=C(NC1(C(=O)O)CCC1)C1CC1c1ccccc1OC(F)(F)F` (stereo not drawn), the “% Inhibition” value was found to be 4% and the Z score is recorded as -0.77.

As to `FC(F)Oc1cccc(CN2CC(c3ccccn3)C2)c1`, the “% Inhibition” value is given as -2% and the Z score is on record as 0.45.

In the case of `CCN(C)S(=O)(=O)N1CCN(Cc2c(C)nc3n2CCCC3)CC1`, the “% Inhibition” value turned out to be 49% and the Z score is -5.81.
